Among all 360,000 compounds or so, about 17,000 (4.7%) were called active. Inconclusive means that the source gave no clear call. Such entries were picked first, then a sample of the others. Rule as the data show it: active = activity change below about -50%; inconclusive = mostly about -30% to -49%; inactive = weaker than that.
Test: qHTS for Inhibitors of Inflammasome Signaling: IL-1-beta AlphaLISA Primary Screen
Settings: THP-1 LPS/ATP IL-1B secretion, 16 h; at 57.5 µM, active compounds read low
Method in brief: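 THP-1 cells pretreated 1 hr with compounds (up to 57.5 uM final), then stimulated with LPS (250 ng/mL final) plus ATP (1.25 mM final); secreted IL-1B measured by AlphaLISA after 16 hr, decreased signal indicating inhibition.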
% is scaled to controls: 0 for no effect and ±100 for the full control effect.

Row | SMILES | activity change
1 | Cc1[nH]c2ccccc2c1SCC(=O)N1CCCc2ccccc21 | inconclusive: -36.1%
2 | CC1CN(CCN2CC(C)N(C=O)CC2C)C(C)CN1C=O (configuration not stated) | inactive: -2.67%
3 | Oc1ccc(C[C@H]2CNCCN2CCc2cc(C(F)(F)F)cc(C(F)(F)F)c2)cc1 | inconclusive: -32.2%
4 | CCC(C)NC(=O)COc1ccc(OCc2ccccc2)cc1 (configuration not stated) | inactive: 19.2%
5 | COc1ccc(-c2ccc3oc(-c4ccc(OC)cc4)c(C#CCO)c3c2)cc1 | inconclusive: -36.7%
6 | CC(Nc1nc(N2CCCCC2)nc2ccccc12)c1ccccc1 (configuration not stated) | inconclusive: -30.4%
7 | CCN(CC)S(=O)(=O)c1ccc2oc(Nc3ccccc3)nc2c1 | inconclusive: -48.3%
8 | COc1cc2cc(CN(Cc3cccnc3)C(=O)Nc3ccccc3F)c(=O)[nH]c2cc1OC | inconclusive: -42.3%
9 | Cc1ccc(C(=O)NCc2ccccc2)cc1Br | inactive: -11.1%
10 | COC(=O)C1=CN(Cc2ccc(OC)cc2)C=C(C(=O)OC)C1c1cc(OC)c(OC)c(OC)c1 | inconclusive: -33.2%
11 | CCCCCOC(=O)c1c(N)n(CCOC)c2nc3ccccc3nc12 | inconclusive: -32.8%
12 | COc1cc(NC(=O)c2ccccc2Cl)ccc1NC(=O)c1cccs1 | inconclusive: -31.3%
13 | CCOc1ccc2oc(C(=O)OCC(=O)N3C(C)CCCC3C)c(C)c2c1 (configuration not stated) | inconclusive: -35.8%
14 | COc1cc(OC)c2c(-c3ccccc3)cc(=O)oc2c1C(CC(=O)N1CCCC1)c1ccc2c(c1)OCO2 (configuration not stated) | inconclusive: -45%
15 | COc1ccc(-c2cn3cccc(C)c3n2)cc1Br | inconclusive: -31.2%
16 | CCN(C(=O)COC(=O)c1ccccc1Nc1ccccc1)c1c(N)n(Cc2ccccc2)c(=O)[nH]c1=O | active: -50.1%
17 | Cc1cc(C)nc(/N=c2/ssnc2Cl)c1 | active: -101%
18 | CC/C(=N\NC(=S)Nc1cc(C)ccc1C)c1ccc(OC(F)F)cc1 | inactive: 0%
19 | CCOC(=O)Cn1cc(/C=N/NC(=O)c2cc3ccccc3o2)c2ccccc21 | inconclusive: -31.8%
20 | OCCN1CCN(c2nc(-c3ccccc3)c3cc(Br)ccc3n2)CC1 | active: -78.8%
21 | CSc1cccc(NC(=S)N2CCC(N(C)C3CCCCC3)CC2)c1 | inactive: -27%
22 | CCN1C(=O)[C@H]2[C@@H](c3ccc(C)cc3)N[C@]3(CCCN(Cc4ccc(C(F)(F)F)cc4)C3=O)[C@H]2C1=O | inactive: 17%

Row | SMILES | activity change
23 | CC(=O)c1cccc(Nc2nc(-c3ccccc3)nc3ccccc23)c1 | inactive: -22.4%
24 | CCCN1C2CCCC1CC(NC(=O)c1ccccc1OC)C2 (configuration not stated) | inactive: -13.1%
25 | COc1cc(NC(=O)C/C(C)=N/NC(=O)c2cccc(O)c2)c(OC)cc1Cl | inactive: -4.22%
26 | CC1CCN(S(=O)(=O)c2ccc(C(=O)N3CCCC(C(F)(F)F)C3)cc2)CC1 (configuration not stated) | inconclusive: -47.1%
27 | O=c1cc(CN2CCN(Cc3ccccc3)CC2)c2cc(Cl)ccc2o1 | inactive: 19.6%
28 | Cn1c(=O)cc(SCC(=O)N2CCN(Cc3ccc4c(c3)OCO4)CC2)c2ccccc21 | inconclusive: -37.2%
29 | Cc1ccc(-c2nc3c4ccccc4ccn3c2Cc2cccc(Cl)c2)cc1 | inactive: 23.5%
30 | COc1ccc(-c2csc(N=C(N)N)n2)cc1 | inconclusive: -43.2%
31 | CC(=O)Oc1ccc(C(=O)Cc2ccccn2)c(O)c1 | inactive: -1.58%
32 | CC(C)CN(C(=O)CN1C(=O)NC2(CCc3ccccc32)C1=O)C1CCS(=O)(=O)C1 (configuration not stated) | inactive: 25.2%
33 | c1cc2c3c(cccc3c1)C(N1CCCCC1)=N2 | inconclusive: -46%
34 | CCOC(=O)N1CCN(S(=O)(=O)c2ccc(C(=O)N(CCCN(C)C)c3nc4ccc(Cl)cc4s3)cc2)CC1 | active: -96.4%
35 | O=C(O)c1ccccc1C(=O)Nc1ccc(Nc2ccccc2)cc1 | inconclusive: -35.4%
36 | O=C(NC1CC1)c1sc2cc(F)ccc2c1Cl | inactive: 8.29%
37 | CCCCn1c(N)c(N(CC(C)C)C(=O)c2oc3ccc(Br)cc3c2C)c(=O)[nH]c1=O | inconclusive: -34.4%
38 | COc1cc(NC(=O)C2CCCCC2)c(OC)cc1NC(=O)CN1CCCCC1 | inconclusive: -38.1%
39 | Oc1ccc(CCNc2c3ccccc3nc3ccccc23)cc1O | active: -99.3%
40 | CCn1c(-c2ccccc2SC)n[nH]c1=S | inactive: -7.53%
41 | Cc1ccc(CN2CCN(C(=O)c3cccc4ccccc34)CC2)cc1 | inconclusive: -38.6%
42 | COc1ccccc1C(=O)NC(=S)Nc1ccc(N2CCN(C(=O)c3ccco3)CC2)cc1 | inconclusive: -44.1%
43 | Cc1ccc(OCCn2cc(/C=N/NC(=O)c3ccncc3)c3ccccc32)cc1 | inconclusive: -37.4%
44 | COc1cccc(-n2ccnc2SCC(=O)N2CCCc3ccccc32)c1 | inconclusive: -36.5%

Row | SMILES | activity change
45 | CCOC(=O)CN1CCS(=O)(=O)CC1 | inconclusive: -49.2%
46 | Cc1ccc(C)c(S(=O)(=O)Nc2ccc(C(=O)N3CCOCC3)cc2)c1 | inconclusive: -38.4%
47 | Cc1ccc(Nc2cc(C)nn2-c2nc(C)cc(=O)[nH]2)cc1 | active: -110%
48 | CC1(C)Cc2c(sc3nc(-c4cccs4)n(N)c(=O)c23)CO1 | inactive: -12.1%
49 | CC(C)Oc1ccc(Nc2ncnc3ccccc23)cc1 | active: -154%
50 | O=C(/C=C/c1ccc([N+](=O)[O-])o1)NNC(=O)c1ccc(F)cc1 | active: -102%
51 | COc1ccc([C@H]2CC(=O)C=C(c3ccc(NC(C)=O)cc3)C2)cc1OC | inconclusive: -30.3%
52 | CC12CN(Cc3ccccc3)CC(C)(CN(Cc3ccccc3)C1)C2=O | inconclusive: -41.3%
53 | Cc1cc(C)cc(C(=O)NC(=S)Nc2ccc(Cc3ccncc3)cc2)c1 | inconclusive: -37.8%
54 | Cc1ccc([N+](=O)[O-])cc1N=Nc1c(-c2ccc([N+](=O)[O-])cc2)[nH]n(C(N)=S)c1=O | inconclusive: -37.8%
55 | COc1ccc(-c2cnc3c(NC(C)=O)cc(-c4cccc(C(=O)NCCN(C)C)c4)cn23)cc1OC | inconclusive: -38.2%
56 | Nc1cc(Nc2ccccc2)ccn1 | inconclusive: -36.4%
57 | COC(=O)c1ccc(/C=C2/SC(=S)N(CCCC(=O)Nc3ccc(O)cc3)C2=O)cc1 | inconclusive: -36.8%
58 | CN(C)CCNC(=O)c1csc(Nc2cccc3ccccc23)n1 | active: -60.7%
59 | Cc1cc(=O)oc2cc(OCC(=O)N3CCN(C(=O)C4COc5ccccc5O4)CC3)ccc12 (configuration not stated) | inconclusive: -36.8%
60 | Cc1ccc(Nc2nnc(SCc3ccccc3)s2)cc1 | inconclusive: -32.5%
61 | COc1ccccc1NC(=O)N(CCN(C)C)Cc1cc2cc(C)ccc2[nH]c1=O | inconclusive: -33.9%
62 | Cc1c(C(=O)Oc2cccc3cccnc23)oc2ccccc12 | inconclusive: -44.2%
63 | O=C(OCc1c(F)cccc1Cl)c1cc([N+](=O)[O-])ccc1N1CCOCC1 | inconclusive: -41.2%
64 | Clc1ccc(-n2ncc3c(NCCN4CCOCC4)ncnc32)cc1 | inconclusive: -31.7%
65 | Cc1ccc(-c2nn(-c3ccccc3)cc2C(=O)NCC(c2cccs2)N2CCOCC2)cc1 (configuration not stated) | inconclusive: -30.9%
66 | COc1ccc(CNC(C)C23CC4CC(CC(C4)C2)C3)c(OC)c1OC (configuration not stated) | inconclusive: -34.3%

Row | SMILES | activity change
67 | Cc1cc(C)n(CC(O)Cn2ccc3ccccc32)n1 (configuration not stated) | inactive: 5.22%
68 | COc1ccc(NC(=O)C(c2ccc(OC)cc2)n2c(=O)c(-c3ccco3)nc3ccccc32)cc1 (configuration not stated) | inactive: -9.31%
69 | Cn1c(C(=O)NCCc2ccsc2)cc2c(=O)n(C)c3ccccc3c21 | inconclusive: -38.7%
70 | COc1ccc(/C=C(\C#N)C(=O)NC2CCS(=O)(=O)C2)cc1OC (configuration not stated) | inactive: 13.5%
71 | Cc1ccc(NC(=O)COc2ccc(Br)cc2C)cc1 | inconclusive: -35.4%
72 | O=C(Nc1nnc(SCc2ccc(Cl)cc2Cl)s1)C1COc2ccccc2O1 (configuration not stated) | inconclusive: -38.5%
73 | CCOc1cc(/C=N/Nc2nc(-c3cccc(S(=O)(=O)N4CCCC4)c3)cs2)ccc1O | active: -82.9%
74 | Cc1ncc(CN2CCCC(C(=O)Nc3ccc(-c4cccc(F)c4)cc3)C2)n1C (configuration not stated) | inconclusive: -49.4%
75 | CCC(Sc1nc(C)cc(C)n1)C(=O)NC1=NN=C(c2ccc(C)cc2)CS1 (configuration not stated) | inactive: -14.4%
76 | CN(C)CCNCCCNc1c2ccccc2nc2cccc([N+](=O)[O-])c12 | inconclusive: -36.1%
77 | Cc1ccc(NC(=O)c2cc(=O)c3ccccc3o2)cc1S(=O)(=O)N1CCCCC1 | inconclusive: -40.4%
78 | Cc1ccccc1C(=O)N1CCN(c2ccc(NC(=S)NC(=O)c3ccco3)cc2)CC1 | inconclusive: -46.8%
79 | COc1cc2c(cc1OC)C(=S)NC1(CCCC1)C2 | inconclusive: -30.5%
80 | CC(=O)N1CCC(Nc2ccc(C)cc2)CC1 | inactive: 11%
81 | CCCCNc1c(-c2ccc(OC)c(Sc3ccc(OC)cc3)c2)nc2ccc(Cl)cn12 | inconclusive: -42.5%
82 | COc1cc(/C=N/NC(=O)NC2CCCCC2)ccc1O | inconclusive: -33.2%
83 | CC(C)CN(CC(C)C)CC(O)CN(c1ccccc1)S(=O)(=O)c1ccccc1[N+](=O)[O-] (configuration not stated) | inconclusive: -40.5%
84 | Cc1ccc([N+](=O)[O-])c(OCCn2cnc3ccccc32)c1 | inconclusive: -48.2%
85 | COc1ccc(C(=O)Nc2nc(CC(=O)NCCc3cccc(OC)c3)cs2)cc1 | inconclusive: -43.5%
86 | CCOC(=O)c1c(C)[nH]c(C)c1S(=O)(=O)N(C)CC(=O)Nc1ccccc1 | inactive: 7.87%
87 | Cc1ccc(CSc2nnc(C(F)(F)F)n2Cc2ccc(F)cc2)cc1 | inconclusive: -31.9%
